# Source: PubChem BioAssay (Tox21)
# Where “and” joins values, the source holds several entries; their conditions need not be identical. Equal entries are not always repeated. Inconclusive results, whose numbers are uncertain, are shown with a selection of clear calls. For some of these results: Potencies beside an inconclusive call are fits to weak or partial responses and may not hold up. Calls of active or inactive are those of the source. Unless noted, the call rests on the fitted dose curve; in most records, active means well fitted curve in the direction sought with a large enough effect in the repeat runs; inconclusive means weak or mixed curves; inactive means no such curve, though single readings can be large; an effect the other way counts as inactive or inconclusive.
# How the values were obtained:
# [1] = qHTS assay for small molecule agonists of the p53 signaling pathway (AID 651631; calls by dose curve; further: nearly all actives have a fitted effect of over 15% in size); conditions: HCT-116 p53RE-bla reporter, beta-lactamase FRET ratio, 16 h; activation: at 73.3 µM (top of the series) unless noted
# Outline: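 Quantitative high-throughput format: 4,000 p53RE-bla HCT-116 cells/well, 5 h pre-incubation, 16 h compound exposure at 37 °C, 2 h room-temperature substrate step, fluorescence intensity measured.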
# [2] = qHTS assay for small molecules that induce genotoxicity in human embryonic kidney cells expressing luciferase-tagged ATAD5 (AID 651632); further: nearly all actives have a fitted effect of over 15% in size
# Outline: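 Quantitative HTS in HEK293T expressing luciferase-tagged ATAD5, whose levels rise upon DNA damage. Exposure ran 16 hr at 37C and 5% CO2, with luminescence read 30 min after Amplite addition at room temperature.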
# [3] = target: Glucocorticoid receptor (Homo sapiens) (UniProt P04150); test: qHTS assay to identify small molecule agonists of the glucocorticoid receptor (GR) signaling pathway (AID 720691; active means well fitted activation curve with a large enough effect in the signal ratio in the repeat runs, not every such curve was filed as active; inconclusive means weak or mixed curves, or effect the other way; inactive means no such curve, though single readings can be large or run the other way; the % refers to the signal ratio); conditions: GR-bla HeLa, beta-lactamase reporter ratio, 18 h; activation: at 62.4 µM (top of the series) unless noted
# UniProt P04150, sequence (P04150 whole entry, looked up): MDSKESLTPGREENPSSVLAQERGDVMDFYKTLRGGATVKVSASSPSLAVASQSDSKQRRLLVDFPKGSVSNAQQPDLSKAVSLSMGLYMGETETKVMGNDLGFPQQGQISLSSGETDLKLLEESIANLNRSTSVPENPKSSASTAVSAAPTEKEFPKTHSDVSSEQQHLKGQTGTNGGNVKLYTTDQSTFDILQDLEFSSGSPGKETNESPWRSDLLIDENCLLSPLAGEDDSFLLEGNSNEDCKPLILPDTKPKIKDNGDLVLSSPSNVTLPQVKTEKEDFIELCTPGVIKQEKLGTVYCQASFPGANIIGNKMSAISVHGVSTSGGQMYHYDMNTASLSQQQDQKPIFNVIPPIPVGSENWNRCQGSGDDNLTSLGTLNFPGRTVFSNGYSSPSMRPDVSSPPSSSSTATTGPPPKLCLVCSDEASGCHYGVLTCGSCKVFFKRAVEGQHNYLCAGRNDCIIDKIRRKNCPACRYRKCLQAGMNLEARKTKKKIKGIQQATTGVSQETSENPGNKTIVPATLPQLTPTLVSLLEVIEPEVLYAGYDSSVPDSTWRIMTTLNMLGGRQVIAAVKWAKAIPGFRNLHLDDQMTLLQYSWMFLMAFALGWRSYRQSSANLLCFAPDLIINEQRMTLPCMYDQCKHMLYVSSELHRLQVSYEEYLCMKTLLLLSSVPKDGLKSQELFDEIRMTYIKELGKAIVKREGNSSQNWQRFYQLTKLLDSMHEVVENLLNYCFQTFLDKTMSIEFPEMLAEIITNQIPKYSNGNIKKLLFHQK
# Outline: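 Cells: GR-bla HeLa, endogenous GR with stably integrated GRE-beta-lactamase reporter. Treatment 18 h, 37 C, compounds delivered in DMSO. Detection via LiveBLAzer B/G FRET substrate, 2 h RT, fluorescence intensity.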
# [4] = target: Glucocorticoid receptor (Homo sapiens) (UniProt P04150); test: qHTS assay to identify small molecule antagonists of the glucocorticoid receptor (GR) signaling pathway (AID 720692; active means well fitted inhibition curve with a large enough effect in the signal ratio in the repeat runs, not every such curve was filed as active; inconclusive means weak or mixed curves, or effect the other way; inactive means no such curve, though single readings can be large or run the other way; the % refers to the signal ratio); conditions: GR-bla HeLa, beta-lactamase FRET ratio, dexamethasone-stimulated, 18 h; series mostly up to 58.5 µM
# Outline: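 Quantitative HTS in antagonist format: HeLa cells expressing endogenous GR and a stably integrated GRE-bla reporter, stimulated with 5 nM dexamethasone (final) alongside test compounds for 18 h.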
# [5] = qHTS assay for identifying genotoxic compounds that show differential cytotoxicity against isogenic chicken DT40 cell lines with known DNA damage response pathways - wild type cell line (AID 743012); conditions: DT40 wild type chicken cells viability, CellTiter-Glo, 40 h; activity change, negative = cytotoxicity: at 68.4 µM (top of the series) unless noted; further: nearly all actives have a fitted effect of over 60% in size
# Outline: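 Luminescent ATP viability signal (CellTiter-Glo, 30 min RT) recorded after wild type DT40 cells were incubated with compounds for 40 h at 37 C/5% CO2.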
# [6] = qHTS assay for identifying genotoxic compounds that show differential cytotoxicity against isogenic chicken DT40 cell lines with known DNA damage response pathways - Rev3 mutant cell line (AID 743014); conditions: chicken DT40 Rev3-/- viability, CellTiter-Glo, 40 h; series mostly up to 68.4 µM; further: nearly all actives have a fitted effect of over 55% in size
# [7] = qHTS assay for small molecule disruptors of the mitochondrial membrane potential - cell viability (AID 720634; calls by dose curve; further: nearly all actives have a fitted effect of over 20% in size)
# Outline: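 ATP-based luminescent viability readout (CellTiter-Glo, 30 min, room temperature) in HepG2 cells multiplexed with the m-MPI membrane potential dye; compound exposure lasted 1 hr at 37 C.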
# [8] = qHTS assay for small molecule disruptors of the mitochondrial membrane potential (AID 720635); conditions: HepG2 mitochondrial membrane potential, Mito-MPS dye ratio; series mostly up to 83.2 µM
# Outline: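 Mitochondrial membrane potential tracked with Mito-MPS dye, red aggregates (ex 540/em 590 nm) against green monomers (ex 490/em 535 nm). Compound treatment 1 hr at 37C, dye 30 min in HepG2.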
# [9] = qHTS assay to test for compound auto fluorescence at 460 nm (blue) in HEK293 cells (AID 720678)
# Outline: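 After cell attachment (4-5 hr, 37C), compounds were pinned onto HEK293 monolayers in 10% dialyzed FBS medium. The blue channel (405/460 nm) was read following overnight culture. Equivalency was calculated against triamterene.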
# [10] = qHTS assay to test for compound auto fluorescence at 460 nm (blue) in HepG2 cell free culture (AID 720685)
# Outline: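 Cell-free plates of MEM plus 10% FBS received 23 nL compound or DMSO vehicle; blue-channel (405/460 nm) intensity scored against triamterene as reference fluorophore.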
# [11] = qHTS assay to test for compound auto fluorescence at 460 nm (blue) in HepG2 cells (AID 720687)
# Outline: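 Blue-channel autofluorescence (Ex/Em 405/460 nm, triamterene-equivalent) was measured after 1 hr compound exposure at 37 C, 5% CO2. Cells were HepG2, plated overnight at 37 C in MEM plus 10% FBS.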
# [12] = qHTS assay for identifying genotoxic compounds that show differential cytotoxicity against isogenic chicken DT40 cell lines with known DNA damage response pathways - Rad54/Ku70 mutant cell line (AID 743015); conditions: DT40 Rad54/Ku70 mutant viability, CellTiter-Glo, 40 h; activity change, negative = cytotoxicity: at 66.8 µM (top of the series); further: nearly all actives have a fitted effect of over 60% in size
# Potency means the concentration at half of the fitted maximal effect; tags describe the fitted curve by direction and shape or compound fluorescence and quenching.
Compound,Potency [1],Potency [2],Potency [3],Potency [4],Potency [5],Potency [6],Potency [7],Potency [8],Potency [9],Potency [10],Potency [11],Potency [12]
O=C(N[C@@H]1N=C(c2ccccc2F)c2cccc3c2N(CC3)C1=O)c1cc2ccccc2[nH]1,inconclusive: 26.6 µM [partial curve],"inconclusive: 9.44 µM [activator, partial curve]","inconclusive: 21.3 µM [falling, single point]","inconclusive: 19 µM [cytotoxic, partial curve, poor fit]","inconclusive: 11.9 µM [cytotoxic, full curve]",inactive,,,,,,
CN(C)c1ccc(C(=O)c2ccc(N(C)C)cc2)cc1,active: 605 nM and active: 273 nM,"active: 27 µM and inconclusive: 54.5 µM [activator, partial curve]",,"inconclusive: 48.5 µM [activator, partial curve] and inconclusive: 54.9 µM [activator]",,active: 762 nM and active: 969 nM,"inconclusive: 60.5 µM [cytotoxic, partial curve, poor fit] and inconclusive: 61.1 µM [cytotoxic]","inconclusive: 68.6 µM [inhibitor, single point]","inconclusive: 5.01 µM [fluorescent, full curve, poor fit]","inconclusive: 5.01 µM [fluorescent, full curve] and inconclusive: 5.62 µM [fluorescent, full curve, poor fit]","inconclusive: 4.47 µM [fluorescent, full curve] and inconclusive: 7.08 µM [fluorescent, full curve, poor fit]",active: 1.35 µM and active: 1.37 µM
